# In the supplement of paper PMC11417369:
# ± gives the standard deviation of the averaged measurements. The list shows a part of the results.
# Tested on: PfAP2-G AP2 domain (GST-tagged)
# Test: gcPBM binding intensity (ln(normalized median fluorescence intensity)); higher = stronger DNA binding
# Procedure, shortened: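 DNA-binding domains from P. falciparum, fused to GST and produced in E. coli, were put on an Agilent 4 × 180k double-stranded probe array for 1 h in 1× PBS holding 1% milk, 0.2 mg/ml BSA, 0.5% salmon testes DNA and 0.03% Triton X-100. Probes were primer-extended, 36 bp long and drawn from intergenic genomic regions, with negative controls included. After Alexa488 anti-GST antibody detection and a 488 nm scan, binding intensity was set as the highest Masliner-normalised natural-log median intensity across replicate spots of either probe orientation.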
row,Sequence,gcPBM binding intensity (ln)
1,GACTTTTCAATTTTTCGTACGTATAAATTGTATACA [XGTACX_site1488],11.1 ± 0.7
2,TTTTGTTACTTTTATGTGCACTTATAAAACGAACTA [GTGCAC_site9551],10.7 ± 0.52
3,TATTAAACTGGACACACACACACACCCATATATAAA [CACACA_site4579],10.9 ± 0.53
4,TTTTGAAGTAACAAATAAATAAATAAATATATAAAA [GTGCAC_negctrl_site517],10 ± 0.2
5,ATTCATTCATATGTTACACACACACCGACACATAAA [CACACA_site5749],10.3 ± 0.18
6,AAAATAATCACATATTGTACAAAAAAATTTATTAAA [XGTACX_site3239],10.9 ± 0.56
7,TATATTAATATGAAAAGTACACATTCTATATATATA [XGTACX_site929],11.4 ± 0.91
8,ACATAATTTGATAATACACACAAATAATCTAAAATT [CACACA_site129],10.01 ± 0.021
9,ATCATTTGCTCACGCACACACACATAAAAAGAAAAA [CACACA_site4349],10.5 ± 0.52
10,ATTATGTACAAAATGGTGCAATATTATACATATATA [GTGCAC_site9468],10.8 ± 0.57
11,AAAAATAGTATAAGTAGTACAACTGAAAAGTTATGT [XGTACX_site7488],11.6 ± 0.86
12,AAAAAATGGATGATCACACACTTCATAAAAATTGCA [CACACA_site5256],9.935 ± 0.035
13,AAAAAAAAAAAAAAATGTACCCATATATAAATATAT [XGTACX_site4061],11.2 ± 0.72
14,TTTAATTATAAAACGTGTACATAATTATAATTACAT [XGTACX_site2206],11.6 ± 1
15,TATATTTAGAATACAATCTTAAAGTTGAAATAAAAT [CACACA_negctrl_site1292],9.82 ± 0.18
16,TTGTTAAATATTTATAAAATGAATTTAAAATGTACT [CACACA_negctrl_site665],10.01 ± 0.092
17,ACATTCATAAAAAAAAGTACATTTTTTATAAAAGAA [XGTACX_site6197],11.4 ± 0.75
18,ATATATCCAATATATATATATATATATATATATATA [CACACA_negctrl_site160],9.93 ± 0.53
19,TTTATTATCTTATTCACACACATATATAAATATGTA [CACACA_site7369],10.05 ± 0.085
20,AAAAAAAAAACATACACACACACAAATATTTATATA [CACACA_site437],9.85 ± 0.11
21,AACATAATAAAAAAACGTACATAATTTTATATACAT [XGTACX_site6602],11.4 ± 0.76
22,TTCTTAGATTGTACAGTACACACCTTTAGAATGTTA [CACACA_site212],11.3 ± 0.74

row,Sequence,gcPBM binding intensity (ln)
1,AATTCATTTTACCCATGTACACAATTATATTTTATA [XGTACX_site4127],11.6 ± 0.83
2,TACTACCACGGACATGCATGCACATTATTACTCTAA [TGCATGCA_site313],10.8 ± 0.52
3,ATAATATAGAAACACACACACATATATATATACATT [CACACA_site555],9.92 ± 0.028
4,TTTATATATAAATATATATATATATATATATATATA [TGCATGCA_negctrl_site121],9.72 ± 0.28
5,TAGTTTTTATATAGCACACATATTGTGATTATGTAT [CACACA_site1196],10.03 ± 0.064
6,AAATTATGTGCCAATACACACACACCGATATATATA [CACACA_site8050],10.3 ± 0.19
7,AAGAAAAAATGATGAATAGAGATCAAATCTATATAT [TGCATGCA_negctrl_site29],9.58 ± 0.27
8,TACAAAATAAATGGAACATGCAAAAAAATTGATTAA [TGCATGCA_site790],9.77 ± 0.26
9,AAAAAAAAAAAAAAAACACACATTTTAAGAAAAAAA [CACACA_site2926],10.4 ± 0.16
10,ATATGCTATTATATATGTACACACCAATTTATTTAT [XGTACX_site8364],11.5 ± 0.89
11,ATATATATGTATGTATGTACACACAAAAAATGGAAT [XGTACX_site7879],11.5 ± 0.79
12,TTAAAATAGCTAGTTTGTACATAAAATATATTACTT [XGTACX_site202],10.8 ± 0.49
13,AATATATATATATATATTTTTGTTAGAATATGGAAT [GTGCAC_negctrl_site434],9.87 ± 0.16
14,TAAATAAATAAAAATAGTACATAATTATTATTATTA [XGTACX_site4981],11 ± 0.68
15,TTTTAAAAAATATAATAATATAAATATGTTTTATAC [CACACA_negctrl_site643],9.55 ± 0.11
16,ATATATATATGTTTGTGTACTTATGATATCATATAA [XGTACX_site3276],11.5 ± 0.99
17,ATTATATTCTTTACTACCAATTAGTAGAAAATAAAA [CACACA_negctrl_site1096],10.3 ± 0.3
18,CTTAATAAGAATAAATGTACAAGGGATAAAAAATTT [XGTACX_site3213],10.8 ± 0.38
19,TATTTAATTATTTGTAGTACGATTAATATTTAATGA [XGTACX_site3553],11 ± 0.62
20,ATAGAATATTAATAATTAAAAATAAAATAAAATAAA [CACACA_negctrl_site1810],9.63 ± 0.16
21,ATAACTTTTTAAAAGACACACATAAGAAAAACAAAA [CACACA_site723],10.3 ± 0.26
22,ATAAAACGAAGATGTTGTACGTACAAATAAATGAAT [XGTACX_site2472],11.6 ± 0.83
